# Data taken from the supplement of paper PMC3334620.
# The full ranking holds about 33,000 sequences; the median of “E-score (-0.5 to 0.5)” is about -0.056, and the highest 2% start at about 0.38. This is one part of the list.
# Target: Stb4 (UniProt P50104)
# Assay: PBM E-score (8-mer binding enrichment) (E-score (-0.5 to 0.5)); higher = stronger / more preferred TF binding; most listed sequences are background and not binding sites
# Settings: protein concentration: 200 nM; construct: GST-DNA-binding domain
# Summary of the method: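 GST-tagged yeast TFs (full-length or DNA-binding domain) were made by PURExpress in vitro transcription/translation and applied at about 100-200 nM to universal all-10-mer Agilent arrays. The arrays were made double-stranded by primer extension, on fresh or once-stripped slides. Bound protein was detected with fluorescent anti-GST, and scans were normalised with masliner. Each ungapped eight-base word, pooled with its reverse complement, received an E-score (modified Wilcoxon-Mann-Whitney statistic) from the Universal PBM Analysis Suite.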
row,Sequence,PBM E-score
1,AGTCGTAG,-0.16
2,GCATATTA,-0.0183
3,AGCGTGAT,-0.0713
4,GTACGTCA,-0.143
5,TACAGGAA,0.0531
6,CTACCTTA,-0.0673
7,ATGATTCG,0.0336
8,GAGTTCTA,-0.185
9,CCTTTCAC,-0.119
10,ATTGGCCG,0.18
11,AGGGGTGA,-0.407
12,CAAACGGG,0.106
13,CTCGCTGA,-0.1
14,CCGCAGCG,0.0883
15,GAACCGTA,0.0316
16,GCGTAAAC,0.079
17,ATAAAACG,0.0566
18,ACTTTGGC,0.123
19,ACTATCGA,-0.253
20,GGCACAAC,0.039
21,CAAAGGTA,-0.0824
22,TGTTCCAA,-0.163
23,CCTCACAC,-0.293
24,ACTACTGC,-0.181
25,GTTCCTAA,-0.00986

row,Sequence,PBM E-score
1,ACATTGAC,-0.158
2,CCAACTCA,-0.0892
3,GCATGAGA,-0.241
4,CGAGCTCC,0.188
5,CACATCTA,0.0376
6,GTACCCAA,-0.0334
7,CAGAACCC,0.0311
8,CTGCCCTC,-0.295
9,GACTAGTC,-0.224
10,AGTATACC,0.0367
11,GCGACCAC,0.0307
12,AGAACCGA,0.288
13,AGGCGACA,-0.1
14,ATACATTA,-0.113
15,GATATGGA,0.0856
16,AGGTTCGG,0.403
17,ATCCGTGG,0.345
18,AATCCGAA,0.42
19,GCATTTCA,-0.0146
20,CAGGGAAA,-0.035
21,AAGCTGGC,-0.0422
22,AGACCGGC,0.0653
23,AATGTCCC,0.169
24,ACGTTCGC,-0.0823
25,TATGGACA,-0.156

row,Sequence,PBM E-score
1,CCATGAAC,0.0534
2,AGAACGGC,0.08
3,ACTGGCTC,-0.119
4,AATCAACG,0.0384
5,CAGGTGCG,-0.117
6,AGTCGTGC,-0.13
7,AGGTCCCC,-0.123
8,ATGTTAGC,-0.116
9,AGTTGCAC,0.0381
10,TAGTTAGA,-0.0831
11,ACTCAATC,-0.146
12,ACATGTTG,-0.0905
13,CCAAATCC,0.0248
14,ACATTTCC,0.141
15,GCGAGGGA,-0.129
16,GATTCAGC,-0.0491
17,CAATAATG,-0.129
18,TGAAGAAA,-0.0334
19,GAAGACAA,-0.0366
20,TCCTATAA,-0.222
21,GCCTAGAA,-0.0774
22,CTATCCGA,0.469
23,CAGACTGG,-0.231
24,CCACATCC,0.164
25,CAAAAATA,0.124

row,Sequence,PBM E-score
1,GGTTGTAC,0.132
2,GTCGAAAC,-0.0645
3,ATGAACGC,-0.171
4,GCCACGCC,-0.282
5,ATAGCGTC,-0.209
6,CTACAGGC,-0.0531
7,CACTTCGA,-0.0805
8,GGGTATTA,0.248
9,ACCCGAAA,0.435
10,ACGAGGTC,-0.278
11,GCGGGTAA,0.325
12,AGCATTAT,-0.241
13,CATAGAGG,-0.245
14,GGCCGTAC,0.115
15,CGTCATGA,-0.109
16,ATACCGAG,0.377
17,AATTAGGC,-0.0154
18,CGTGAACA,-0.0865
19,ATATGTGC,0.00479
20,CTCATTTC,-0.0307
21,ACTGGTAC,0.148
22,ATTTGCCC,0.124
23,CCTAATTA,-0.133
24,CCCCCATC,-0.104
25,AATCCGGC,0.241

row,Sequence,PBM E-score
1,GTCCTTAA,-0.161
2,TAGGTCAA,-0.197
3,CGTAATAG,-0.16
4,ATAGTCTA,-0.0562
5,TCCGTCCA,0.279
6,CCACCTGC,0.0341
7,CAGTCATC,0.0653
8,CGTACCGA,0.334
9,CCTTTCTC,-0.266
10,CTGCATCC,0.178
11,ACAAACAA,-0.0425
12,ATATATTC,0.195
13,GTTTTGCA,-0.0786
14,GAGCTTCA,0.0204
15,AGTTTCTG,-0.025
16,CGAACGAA,0.0902
17,AGCTCTCA,-0.0992
18,CTAAGCAA,-0.171
19,GTTTAGTA,-0.181
20,AAGCTCTG,-0.268
21,ACGAATTG,-0.243
22,CAAGTTTA,-0.136
23,GCGGTTAC,0.14
24,GATCGAAC,-0.148
25,CCCAGTGC,-0.0453

row,Sequence,PBM E-score
1,ACCACTCG,0.113
2,CCCTCCTC,-0.053
3,GTAGTGGA,-0.116
4,AGTCTTTG,-0.165
5,AAATAAGT,-0.18
6,ATAGCAGC,-0.158
7,ACCCTAGC,-0.125
8,ATACATAC,-0.227
9,TAACAGCA,-0.0784
10,ACGGTTAG,0.118
11,GCTGAGGA,-0.143
12,AATCCGAG,0.407
13,AGGAATGC,-0.136
14,AACAGCAC,0.151
15,CTTTGACC,-0.0346
16,TCTTTCAA,-0.0903
17,GGCCTTGA,-0.0254
18,GCATCGGA,0.359
19,CGGATTCA,0.19
20,ACGTACCA,-0.142
21,AATCTCTC,-0.0961
22,AAGAACCG,0.252
23,CATCTCTA,-0.169
24,ACATTCCT,0.0113
25,AGCCGAAC,0.411

row,Sequence,PBM E-score
1,CCCCCAAG,-0.229
2,CCAGCACG,-0.0292
3,GCGGTTCA,-0.0793
4,GCAACCTA,-0.248
5,GACCGCAA,0.151
6,CGCCGATC,0.241
7,TGGGACAA,-0.203
8,GCCAAAAA,0.0633
9,ATAAACAC,-0.118
10,ACGAACAG,-0.15
11,CACAAACC,-0.0992
12,ATGCACGA,-0.123
13,AACTACAT,-0.0449
14,CCTCCAGG,-0.191
15,ACTTCTAT,-0.262
16,CTCAGGAC,-0.188
17,ACATGGAG,-0.194
18,GAGCTCCA,-0.14
19,ACAAGTGT,-0.0567
20,ATAATTAA,0.0829
21,AGCATCAC,-0.158
22,GCACCGCC,0.0908
